The other results are listed elsewhere or left out. Values were computed here from the reads of four pooled replicates and scatter widely.

For the assay, the target named is T1, Pho4 (S. cerevisiae) (UniProt P07270).
T1 sequence: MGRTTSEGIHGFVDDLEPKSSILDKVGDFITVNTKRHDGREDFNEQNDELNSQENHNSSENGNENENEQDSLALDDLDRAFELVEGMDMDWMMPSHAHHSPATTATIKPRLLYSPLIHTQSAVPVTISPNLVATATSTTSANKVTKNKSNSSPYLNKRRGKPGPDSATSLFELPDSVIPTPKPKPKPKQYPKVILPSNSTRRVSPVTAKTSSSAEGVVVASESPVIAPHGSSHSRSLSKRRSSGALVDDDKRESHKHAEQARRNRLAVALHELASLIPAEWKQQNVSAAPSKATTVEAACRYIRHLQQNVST
Briefly: relative binding free energy (BET-seq); higher = weaker binding. As to conditions: reference: library average.
Regarding TGCGGCACGTGTTAGC, the “relative binding free energy” value was -0.251 kJ/mol. In the case of GCTGTCACGTGTGAGT, the “relative binding free energy” value was found to be 0.46 kJ/mol. Next, TGCGTCACGTGAGTGC: 0.544 kJ/mol. Next, TCTAACACGTGTTGGT: -0.46 kJ/mol; GGGATCACGTGATGGC: 1.3 kJ/mol; GTTTTCACGTGTACAT: 1.51 kJ/mol. Next, TGATTCACGTGACGGC: 2.01 kJ/mol; GGAAGCACGTGGGTGG: -0.92 kJ/mol. Consider GGTTGCACGTGTCATT, for which the “relative binding free energy” value is 0.377 kJ/mol. The value for AATGTCACGTGTGTTC was 0.962 kJ/mol; that for AGGTGCACGTGAGTGG was 1.09 kJ/mol; that for AAGTTCACGTGGACGG was 1.51 kJ/mol.

On to TTGAGCACGTGGTTGC, for which the “relative binding free energy” value was -0.544 kJ/mol. Next, TTTGCCACGTGTGATA: 0.126 kJ/mol. The value for TTGTTCACGTGAGATC was 1.63 kJ/mol; that for GTGTGCACGTGCAGGT was 0.0418 kJ/mol. Next, TTAAACACGTGGTGGA: -0.293 kJ/mol; TGGCGCACGTGGCGAG: -0.795 kJ/mol; TGCGGCACGTGGTGAA: -0.335 kJ/mol. Take GGAAGCACGTGGAATT: the “relative binding free energy” value was 0.669 kJ/mol. As to CGGGTCACGTGGGTGT, the “relative binding free energy” value is -0.209 kJ/mol.

On to ATGCGCACGTGTGGAT, for which the “relative binding free energy” value was -0.167 kJ/mol. Consider GTTGACACGTGTAGAT, for which the “relative binding free energy” value came to 0.502 kJ/mol. Next, GGCGGCACGTGAGTTG: 0.837 kJ/mol; ATTTGCACGTGATGAA: 0.418 kJ/mol.

Consider TGAGACACGTGAGTGG, for which the “relative binding free energy” value came to 1.09 kJ/mol.

Turning to TGGTGCACGTGTTGCT, the “relative binding free energy” value was -1 kJ/mol. AGACACACGTGGTGGG: the “relative binding free energy” value was -0.669 kJ/mol. The value for TGAATCACGTGGGTAG was 0.126 kJ/mol. Next, ATATTCACGTGGTTAG: 0.795 kJ/mol; GTGGACACGTGGTCGT: -0.0418 kJ/mol; TAGTGCACGTGGATCG: 0.167 kJ/mol. Next, GAAATCACGTGTTGTA: 0.586 kJ/mol; GTCGTCACGTGTGTAA: 1.05 kJ/mol.

On to GTCTTCACGTGGGGAG, for which the “relative binding free energy” value was determined as 0.837 kJ/mol. Next, TTAAACACGTGTGAGG: 0.669 kJ/mol; TTAGACACGTGATAGG: 0.335 kJ/mol; GACTTCACGTGGTTGT: 1.09 kJ/mol.

As to AGGTCCACGTGTTTAG, the “relative binding free energy” value turned out to be 0.293 kJ/mol. The value for AGTTTCACGTGTAGGC was 0.753 kJ/mol. The value for ATGGGCACGTGCGGAA was -0.711 kJ/mol. The value for CGTATCACGTGCTGGG was -0.167 kJ/mol.

Consider TTGAGCACGTGGAGGC, for which the “relative binding free energy” value is -0.586 kJ/mol. Next, ATTCTCACGTGTTAGG: 0.879 kJ/mol. Next, TATGACACGTGTTAAA: 0.46 kJ/mol; GGGGTCACGTGATTAG: 0.92 kJ/mol.

Take TGGTGCACGTGGGAAA: the “relative binding free energy” value is -0.418 kJ/mol.

With TTTAGCACGTGGTGAC, the “relative binding free energy” value is -0.753 kJ/mol. The value for TGTGGCACGTGGTTGT was -0.167 kJ/mol. Next, CATGGCACGTGTTATG: -0.126 kJ/mol; GGTCTCACGTGGGGGG: 0.544 kJ/mol; AGGACCACGTGTATTT: 0.628 kJ/mol.

As to TTACGCACGTGGGTGC, the “relative binding free energy” value is -1.13 kJ/mol. Next, TACGGCACGTGGATAG: 0.0418 kJ/mol; TTCATCACGTGCTGGT: 0.335 kJ/mol; GTCAGCACGTGCAGGG: 0.251 kJ/mol.

Turning to GGTATCACGTGTTGCT, the “relative binding free energy” value was 1 kJ/mol. Next, AGTGCCACGTGGTTGG: -0.795 kJ/mol; GGTGTCACGTGTAGCG: 0.293 kJ/mol; TTCAGCACGTGAGTTA: 0.753 kJ/mol. The value for CATGGCACGTGTGGTG was -0.544 kJ/mol. As to ATTGTCACGTGTTTCT, the “relative binding free energy” value was 0.293 kJ/mol. As to TAGCGCACGTGGAATT, the “relative binding free energy” value came out at 0.753 kJ/mol. On to GGTGTCACGTGAATGA, for which the “relative binding free energy” value turned out to be 1.55 kJ/mol. Take GGCGACACGTGGCGGT: the “relative binding free energy” value was -0.126 kJ/mol. Consider ATGTCCACGTGGTGCG, for which the “relative binding free energy” value was -0.502 kJ/mol. Next, TATTTCACGTGGGATG: 1.09 kJ/mol; GAGTTCACGTGCGTAG: 0.711 kJ/mol; ATTTTCACGTGCCTTT: 0.628 kJ/mol.

For the sequence CGCGACACGTGGGTTG, the “relative binding free energy” value is 0.209 kJ/mol. The value for GATTTCACGTGGACGG was 1.34 kJ/mol; that for GTGGGCACGTGGAGCT was -0.126 kJ/mol; that for GGTTTCACGTGTGTTG was 1.3 kJ/mol.

For TGTGACACGTGAGTGC, the “relative binding free energy” value came to 0.795 kJ/mol. With TAGCACACGTGTGGGT, the “relative binding free energy” value was found to be 0.209 kJ/mol. The value for CTGTCCACGTGGGGGG was -1.21 kJ/mol.

In the case of TAGTTCACGTGACTTT, the “relative binding free energy” value was found to be 1.3 kJ/mol. The value for AAGGCCACGTGTGGGA was -0.335 kJ/mol. Next, ATTGGCACGTGGTTGC: -0.418 kJ/mol; CTGGTCACGTGTGCGG: 0.293 kJ/mol. Next, GATCTCACGTGAGGTT: 2.09 kJ/mol. Consider TTGTTCACGTGCGTTT, for which the “relative binding free energy” value is 1 kJ/mol. The value for CTGTGCACGTGGAGGG was 0.293 kJ/mol. Next, GGGTACACGTGGTGCT: 0.251 kJ/mol; GCGGTCACGTGGGAGG: 0.209 kJ/mol; TTGAGCACGTGGTAGC: -0.418 kJ/mol. As to AGTAACACGTGCTGTG, the “relative binding free energy” value is -0.209 kJ/mol. Consider AGGCGCACGTGTGCTG, for which the “relative binding free energy” value is -0.711 kJ/mol. Next, GAAGTCACGTGGCGGT: 0.377 kJ/mol. The value for CTGGGCACGTGGTATA was -1.46 kJ/mol.

With GTGAGCACGTGATGTC, the “relative binding free energy” value is 0.502 kJ/mol. The value for GGGCTCACGTGTGAAG was 1.26 kJ/mol; that for GTAATCACGTGGGTAG was 0.209 kJ/mol; that for CAATTCACGTGTGTTT was 1.38 kJ/mol. The value for TGGATCACGTGTAAGA was 1.46 kJ/mol; that for GAGGTCACGTGCAGTT was 0.293 kJ/mol; that for ATCGACACGTGTGAGG was 0.669 kJ/mol.

GATGGCACGTGGTAGG: the “relative binding free energy” value is -0.628 kJ/mol. Next, TGCAACACGTGGGGAT: -0.209 kJ/mol; GTTTTCACGTGGGCGG: 1.17 kJ/mol; TTAGGCACGTGCTTGT: -0.46 kJ/mol.

For GTGGTCACGTGAGTTA, the “relative binding free energy” value amounted to 1.05 kJ/mol. Next, TAATGCACGTGAGTTT: 0.962 kJ/mol. The value for GATTTCACGTGTTACG was 1.09 kJ/mol; that for TGAGGCACGTGTCGTA was -0.628 kJ/mol. Next, TGAGACACGTGTAGTT: 0.377 kJ/mol.

With ATTGGCACGTGATAGT, the “relative binding free energy” value stood at 0 kJ/mol. Next, ATCGTCACGTGTTGGT: 0.335 kJ/mol; TGTTCCACGTGAGTAG: 1.17 kJ/mol; TGTCACACGTGTAAGG: 0 kJ/mol.

Take TATTACACGTGAGCGG: the “relative binding free energy” value is 0.795 kJ/mol. Next, GTTGTCACGTGGCGAA: 0.377 kJ/mol; GGTTGCACGTGTTTTA: 0.795 kJ/mol.

As to ATTGGCACGTGGTAGT, the “relative binding free energy” value is -0.502 kJ/mol.

Turning to CCTGACACGTGGTGTG, the “relative binding free energy” value was -0.251 kJ/mol.

Source of the values: the BET-seq Pho4 binding data (Le et al. 2018).
